Measured values reported in PMC10726135.
The other results are listed elsewhere or left out. At the low end of the ranking, values are background and their order means little. Measured with an extract: partners may take part in the binding.

Target: T1, HNF4alpha2 (COS-7 nuclear extract) (UniProt P41235)
T1 sequence: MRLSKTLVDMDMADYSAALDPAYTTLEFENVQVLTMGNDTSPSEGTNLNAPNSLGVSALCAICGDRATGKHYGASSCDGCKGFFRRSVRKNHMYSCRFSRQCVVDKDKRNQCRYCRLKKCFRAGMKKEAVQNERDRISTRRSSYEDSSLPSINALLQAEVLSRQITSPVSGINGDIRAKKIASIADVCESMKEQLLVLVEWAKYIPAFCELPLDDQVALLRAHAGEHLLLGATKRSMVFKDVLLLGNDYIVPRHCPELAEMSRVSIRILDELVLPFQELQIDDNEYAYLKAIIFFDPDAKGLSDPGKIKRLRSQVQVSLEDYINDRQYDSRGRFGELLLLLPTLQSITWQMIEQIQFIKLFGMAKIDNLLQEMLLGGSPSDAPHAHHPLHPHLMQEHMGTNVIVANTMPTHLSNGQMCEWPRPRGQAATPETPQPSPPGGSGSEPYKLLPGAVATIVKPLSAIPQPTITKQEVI
Experiment: protein-binding microarray
Conditions: COS-7 nuclear extract on double-stranded Agilent 4x180k PBM; binding buffer, salt, pH and temperature not given; high values mean tight binding; double strand, one strand shown; sequences stand for … in …GCCTAGGGAGATTAGAGTATCGGTCGA

Row | Sequence | binding signal (log2 normalized intensity)
1 | CCTTTCTACTGCCAGCCAGGGCCACCCATC | -1.02
2 | CCTCTCAAACAAAAATGATGCTACTGGAGG | -1.14
3 | TAGAACCGGGGAGATACTGTAAACCAGCAG | -1.05
4 | ACTGAAAAAGGGGACCGGCCTTTCCCGGCT | -1.12
5 | CTCTGCAAATTTGCCTTGTCCTTAGACAGT | 1.16
6 | TTTTGAGTTTCTGATTAGCCTTTCCAAAGG | 1.29
7 | AAATTCCAGCAGGAATTGATATGTTAGTCT | -0.777
8 | CCCCTGAAATATCATTATCTTGATCAGAAA | 0.475
9 | TCTCAGGGGCCTTGCAATGAGGCGACATCA | -0.851
10 | TGGGTGGATTTGGAGATCAGAGTCCAGCTG | 2.81
11 | TAGGACCTTTGAACCAGAGAAGATTCCAGA | 1.85
12 | ACAGGAGCCCAGAGACAGTGGAATCTACAG | -1.14
13 | AGAGCTTAAAAGCCCAACACGGGCGAAAAA | -1.09
14 | AATCCTCTGGTCTTTGCCCCAGCTCGCTCA | 1.84
15 | GAGAGTCCACTCTCCTATCTTTCCCTCCAC | 0.0293
16 | TCTAAGATTGGCCCTGATAATCAATCCAGC | -0.941
17 | CTTTGAACCCCACACCTCCCTTGCACCAGT | 3.43
18 | GTAGTGGGGAGGGCATGGACTTTGGAATTA | 7.37
19 | AAACCAACCTTTGATCATTCCTGCACAGGA | 2.97
20 | AAAGCTGTCTACAAACACAGAAGTGGACCT | 3.36
21 | TCAAGGCAACTTTGGGCCAAATATTTATGG | 0.826
22 | CTGATAGCATAAAGCTAGGAGACAACACCT | -1.03
23 | CTTACGCCGGCCCGGTGCGCTGGCCTTGCT | -0.997
24 | GGACCGCAGGGGGCTCCCGGACCCTGACTC | 0.458

Row | Sequence | binding signal (log2 normalized intensity)
25 | CTTTTGGTATGCAAGGCATGGTGCTTCGCA | 1.26
26 | TTATCTACCAGGATGTGTGATCTTGGGTAA | 1.31
27 | GGTTGGCTCTGAAGCAAGGATCAAAGTCAC | 2.1
28 | GATTCCACACTGGCTAGATAAGGCTGAAAC | -1.13
29 | TTGCCAAGTCCTTCCCAAACTATAGATTTG | -1.06
30 | AGGGCCCGCTGATCCCGGGAGGGAGAGAAG | -1.15
31 | CTGGCCAGAAGGTCAGAGATCAGGTCTCTT | 0.804
32 | GTAATGAAAGGAAATCATTCCAGAAAGACA | -1.12
33 | GAGGGATTTTCAGTATACTGACTTATCAGG | 0.535
34 | TTGGAATCAAACAGATGTAGACATTGGAAT | 2.94
35 | AAAGCTCAGATTGCCTAAAGGGGATTTTCT | -1.11
36 | GACCCGCCGCCCGAGGTCACTGTATGCCCG | 2.18
37 | GGGAGTCCTGGGCGTTGCTCTCCCACCCCG | 3.15
38 | GGGAGATTCCTGACATTCAGTCTTTGTCTT | 0.983
39 | CTCAGGCACACAAAAAAAACCACTCTTATC | -1.07
40 | CTACCCTTCATCTTCAATACAGAGTCCAAA | 3.11
41 | TCCCAACAGGAGATTACTTCAAGGCTGGAG | -1.14
42 | TCTTGCAGTCCACATTTCTGAGCTGTGGAA | -0.996
43 | GCAAGACTTCTTCAGGGAGACTTCCAGGGA | -0.792
44 | ACCTATGAGACATTTTGTCTTTTCTCCCCT | 2.6
45 | AAATCAATCAAACTCTCTGTGGATGTATGT | 2.27
46 | TAAGACATGCTCGCAGCTGCATAGATAAGA | -1.11
47 | GAGCAAAGATCATCTGGTGGCTATCAAGCA | -1.17
48 | TTGAAGAGCACAGGGTCAGCAGATCTTTGT | 0.32

Row | Sequence | binding signal (log2 normalized intensity)
49 | TCCCTTGCTCCACCCTTCTATCCCCTTATC | 2.8
50 | TGCAGACAGTCCCTCCTCCAGCATAGGCTA | -1.1
51 | GTGATCAATGTGACTGGAGCAGAGCGATCA | -1.12
52 | AGTTCAGCCCTTAGGACCAGGGGGGGAATG | -1.22
53 | TCAACAGAGTGCTTAATCTCTGCTCATAAT | -1.15
54 | AGGTGCTGCACCTTGAAACCCCTCCTTACA | 3.27
55 | AGGGGTGTGTTGACCGATAACCCTCCTGAA | 0.229
56 | AGAGAAGCACATCCAGGCAGCTTCAGAAAC | -1.08
57 | GCAGTGACATGATCAAAGTTCATTGTAGCC | 3.61
58 | GATGTTTGGTCTTATTATCTTCAATGATAA | 1.4
59 | CATCAATTTAGACCGTGTGGAAACCTAACT | -0.752
60 | GTCAGCCACCCCTCCTCCTGGGGGCTTTTG | 2.13
61 | TATGAGGCTTCCATTCTCAGGCAGATGGGC | -0.98
62 | GTTTACTCAGTCATACCACATGGATGGATT | -0.125
63 | GTGTCAATTCTCATTCATCCAAGGACTTTG | 2.23
64 | TTCCCTTTGTATGGCAGGGGTTAACCTCTA | 2.72
65 | GAGCAGGCCTGGGCTTGCAAAGGTCAGGTT | 3.18
66 | CACACACACACACACACCCCACACACCAAA | 3.12
67 | GCACATTCCTTTCCCTTTATTTAGCCTCAC | 1.58
68 | CGTTAGGCTACAGTGGTAACCACAGTACTG | -1.14
69 | TAGGTTAGATAGGAATCTGGATGGCTGAGC | -0.00634
70 | GAAAACCTTAGGCGAATGTCAAAGGTCTTT | 2.88
71 | CGCTCTGAGTGACCTTTCACCCGCGCCCAG | 5.48
72 | CTTGGGTGTATGGGTATAGGCGCGCGTGTG | 1.91

Row | Sequence | binding signal (log2 normalized intensity)
73 | AGAAACAGCTGGATTGTTACATCATAGTGT | 1.31
74 | ATCAGCTTATCTCAAGAATTGTCTAACCGC | -1.11
75 | TTTTTTTTCTTTCTTTTCCCAAACCACGTT | 1.4
76 | TTTTGTATGCATAAGGCCTTGGACCTTCTG | 2.44
77 | TAAGAAATCAGGAGCAAAGGTTGGGGGTGG | 0.963
78 | GCCACATCCTGTCTCCTTTAACCTTCATTC | 1.84
79 | CTCACCTTCAGATGCCATGTCTAAAGGCTG | -0.339
80 | CAGTCCACATGGTGTCTTTTGTTGTTGTTA | 2.33
81 | ACCCAGTTCGTGCTTCTTGGCCTCTTTGTT | 1.98
82 | CCACAAAGGCCAGAGAAAGAGAGAGTTAGT | -1.07
83 | GGCCAGCGACTTTAGGGGCCAAGGGAAAAC | -1.08
84 | CTGCAGTGTGACCTTTGCCTTCTTGACATC | 5.94
85 | TCTGGGATCTCAGGGTGGACTTTAAACATT | 5.91
86 | GACGCGCTTGGGCGACGGACGCGCCGCGCC | -1.04
87 | GATTGTTGTGTGCCCACCTGGGCAACAGGG | 0.706
88 | GATAAGGCTAATCCTTACACAGCAGCTTTA | -1.16
89 | AGCCCAGGTAACATACCAAAAAGCATAACT | -1.28
90 | GTGATTCAACTCTGACCCATAATAACGTCT | 1.57
91 | AGTTCTGAATGAGCAGACTGAGTTGCAGGA | -0.751
92 | TCTAAGAAATAGGTTAAAGAGTGGTCTTGG | 1.38
93 | CAACATACAGAGGCTCTGAGAGTCTCAGTG | -1.07
